# Reference: PubChem BioAssay AID1745853 (National Center for Advancing Translational Sciences (NCATS), 2022)
# This is one part of the list. Shown are side measurements of this screen, not its main read-out; they come without a call.
# Legend:
# Assay in all cases: Primary Screen for Target Class Profiling of Small Molecule Inhibitors of Methyltransferases
# [1] = biological target: Glycine N-methyltransferase (Homo sapiens) (UniProt Q14749); conditions: purified enzyme, MTase-Glo SAH luminescence; measured here: GNMT inhibition; at 40 µM; stronger effect = lower value
# In short: (§1)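 Each enzyme was assayed with SAM and its substrate. SAH formation detected by MTase-Glo luminescence; single-point 40 uM screen[…].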
# [2] = biological target: Guanidinoacetate N-methyltransferase (Homo sapiens) (UniProt Q14353); conditions: purified enzyme, MTase-Glo SAH luminescence; measured here: GAMT inhibition; at 40 µM; stronger effect = lower value
# In short: as §1
# [3] = biological target: Histamine N-methyltransferase (Homo sapiens) (UniProt P50135); conditions: purified enzyme, MTase-Glo SAH luminescence; measured here: HNMT inhibition; at 40 µM; stronger effect = lower value
# In short: as §1
# [4] = biological target: Nicotinamide N-methyltransferase (Homo sapiens) (UniProt P40261); conditions: purified enzyme, MTase-Glo SAH luminescence; measured here: NNMT inhibition; at 40 µM; stronger effect = lower value
# In short: as §1
# [5] = biological target: Phenylethanolamine N-methyltransferase (Homo sapiens) (UniProt P11086); conditions: purified enzyme, MTase-Glo SAH luminescence; measured here: PNMT inhibition; at 40 µM; stronger effect = lower value
# In short: as §1
# % is set by controls: 0 for no effect and ±100 for the full control effect.
SMILES,"activity change, negative = inhibition [1] [%]","activity change, negative = inhibition [2] [%]","activity change, negative = inhibition [3] [%]","activity change, negative = inhibition [4] [%]","activity change, negative = inhibition [5] [%]"
CCCCNC(=O)[C@H]1CCC[C@H]1NC(=O)c1ccncc1,0.325,0.932,2.1,-7.08,11.7
COc1ccc(C(=O)Cn2nc3n(Cc4ccc(C)cc4)c(=O)c4ccccc4n3c2=O)cc1OC,5.21,0.874,3.93,9.12,7.95
COc1ccc(CNC(=O)C2CCN(Cc3ccccc3-c3ccccc3F)CC2)cc1,-6,17.1,-26.6,-10.4,-1.79
CC(C)OCCCNC(=O)C1(C)Cn2c(cc3ccccc32)C(=O)N1Cc1cccc(F)c1 (configuration not stated),4,0.036,5.01,5.5,-0.044
COc1ccc(-c2cc3n(n2)CC(C)(C(=O)NCc2ccccc2)N(c2cccc(OC)c2)C3=O)cc1 (configuration not stated),4.42,0,5.59,9.87,2.74
Cn1cccc1-c1noc(C2CCN(C(=O)COc3ccc(F)cc3)CC2)n1,-5.12,-6.74,-3.81,-10.7,-5.5
Cn1cc(CN2CCOC[C@H](Oc3ccc(S(C)(=O)=O)cc3)C2)c2ccccc21,-4.09,-6.67,-2.22,-11.1,-27.9
COc1ccc(C(=O)N2CCCC3(COc4ccccc4C(=O)N3)C2)cc1 (configuration not stated),-1.65,1.71,-0.22,-7.67,-4.05
COc1ccccc1CNC(=O)CCc1nnc2n(Cc3ccc(Cl)cc3)c(=O)c3ccccc3n12,-3.9,0,2.57,2.65,-4.4
O=C(c1nccc2ccccc12)N1CCc2c(nc(-c3ccccc3)[nH]c2=O)C1,-7.38,-1.27,0.195,-3.68,-9.75
Clc1ccc(C2Nc3ccc(Cl)cc3C3C=CCC32)cc1 (configuration not stated),-5.28,3.87,-3.84,-3.13,-12.8
CCCn1c(=O)c2ccc(C(=O)NC3CCCCC3)cc2n2c(=O)n(CC(=O)c3ccc(OC)cc3)nc12,3.11,0.215,10.2,2.29,1.3
O=C1N[C@@H]2CCN(C(=O)c3ccc(-c4ccccc4)cc3)[C@@H]2C(=O)N1Cc1ccccc1,-8.41,-8.46,-5.66,-20.8,-29.1
O=c1cc(OCc2ccc(F)cc2)ccn1-c1ccc(OCCN2CCCC2)cc1,1.22,-3.88,-20.3,-15.1,-3.99
CCc1ccc(C(=O)COC(=O)C(Cc2c[nH]c3ccccc23)NC(=O)c2ccc(Br)cc2)cc1 (configuration not stated),-4.29,-0.619,-0.313,-8.05,-5.3
O=C(c1ccc(F)cc1)N1CCCC(c2nc(-c3ccc(F)cc3)no2)C1 (configuration not stated),-5.39,–,-2.35,–,–
COc1cccc(N2CCN(C(=O)c3ccc4c(=O)nc5c(-c6cccc(F)c6)n[nH]n5c4c3)CC2)c1,-15.3,4.68,-8.01,-15.2,-5.42
CNC(=O)[C@@H]1C[C@@H](n2cc(CC(C)C)nn2)CN1,-2.61,-4.48,-2.26,-7.24,-6.4
C/C(=C\CCC(C)(O)c1ccc(C)cc1)C(=O)O (configuration not stated),4.41,6.01,8.43,-5.12,3.78
Cc1cccc(N2C(=O)CSc3c(c4ccccc4n3C)C2C(=O)NCCCOC(C)C)c1C (configuration not stated),-5.3,4.08,2.66,-0.759,-2.12
Cc1ccc(NS(=O)(=O)c2ccc3[nH]c(=O)[nH]c3c2)cc1F,-7.01,-2.93,-7.22,-12.9,-33.6
CCOC(=O)c1cc2n(n1)CC(C)(C(=O)NCc1ccccc1)N(Cc1cccc(OC)c1)C2=O (configuration not stated),-3.48,3.54,-0.907,-8.11,-7.76
COC(=O)c1ccnc(-c2cc(C(=O)Nc3ccc(C4(N)CC4)cc3)ccn2)c1,-23.7,9.42,-10.1,-17.8,-10.5
COc1ccc(N(C(=O)C2CCCCC2)S(=O)(=O)c2ccc3c(c2)n(C)c(=O)n3C)cc1,-2.66,2.5,-2.02,6.79,-5.44
CC(=O)N1CCCC(c2[nH]ccc2C(=O)N2CCN(c3ccccc3)CC2)C1 (configuration not stated),-5.09,-1.39,-1.53,2.23,0.617
COC(=O)c1ccc(NC(=O)N2Cc3c(sc4c3CCCC4)-n3cccc3C2c2cccc(F)c2)cc1 (configuration not stated),-0.845,1.39,8.22,-0.09,6.3
C/C(=C\CCC(C)(C)O)CCO[C@@H]1O[C@H](CO[C@@H]2O[C@@H](C)[C@H](O)[C@@H](O)[C@H]2O)[C@@H](O)[C@H](O)[C@H]1O,3.78,2.1,9.15,-9.88,-2.28
